Data: PubChem BioAssay AID588591 (National Center for Advancing Translational Sciences (NCATS), 2011)
Out of some 390,000 compounds screened, about 4,700 (1.2%) were called active. Inconclusive means that the source gave no clear call. Such entries were picked first, then a sample of the others. The call rests on the fitted dose curve; in most records, active means well fitted inhibition curve with a large enough effect; inconclusive means small, poorly fitted or top-dose-only effect, or another doubt; inactive means no such curve, though single readings can be large or run the other way. Where the call is inconclusive, the potency comes from a doubtful curve fit.

molecular target: DNA polymerase eta (Homo sapiens) (UniProt Q9Y253); test: qHTS for Inhibitors of Polymerase Eta; settings: recombinant Pol eta, fluorescent DNA replication assay; series mostly up to 114 µM; activity change, negative = inhibition: at the top concentration
Chain of UniProt Q9Y253 (Q9Y253 whole entry, looked up): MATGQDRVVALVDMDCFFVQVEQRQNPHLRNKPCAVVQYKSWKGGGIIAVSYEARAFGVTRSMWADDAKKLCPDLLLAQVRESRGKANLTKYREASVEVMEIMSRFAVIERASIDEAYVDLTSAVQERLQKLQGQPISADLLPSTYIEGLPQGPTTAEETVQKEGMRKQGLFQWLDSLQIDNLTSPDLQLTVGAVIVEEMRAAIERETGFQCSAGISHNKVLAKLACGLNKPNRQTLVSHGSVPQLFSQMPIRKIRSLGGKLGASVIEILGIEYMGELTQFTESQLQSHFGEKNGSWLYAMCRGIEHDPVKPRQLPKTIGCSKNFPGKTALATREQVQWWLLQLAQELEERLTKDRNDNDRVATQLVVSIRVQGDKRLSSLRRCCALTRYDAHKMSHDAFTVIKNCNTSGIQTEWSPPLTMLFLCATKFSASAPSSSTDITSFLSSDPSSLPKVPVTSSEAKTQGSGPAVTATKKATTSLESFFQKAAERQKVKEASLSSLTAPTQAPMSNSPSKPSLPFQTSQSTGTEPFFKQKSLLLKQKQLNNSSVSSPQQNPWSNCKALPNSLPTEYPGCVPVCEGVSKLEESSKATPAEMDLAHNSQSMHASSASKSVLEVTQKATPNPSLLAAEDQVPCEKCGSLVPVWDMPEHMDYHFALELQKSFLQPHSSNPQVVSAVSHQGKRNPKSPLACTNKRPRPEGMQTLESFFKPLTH
Procedure, shortened: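 Pol eta (10 nM) was preincubated with compounds for 15 min at room temperature, after which fluorescent replication substrate (50 nM final) was added to start the reaction. Fluorescence was read kinetically at 0 and 10 min.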
On the % scale 0 is the no-effect control and ±100 the full control effect; potency means the concentration at half of the fitted maximal effect; tags describe the fitted curve by direction and shape.

| SMILES | Potency | activity change, negative = inhibition |
| --- | --- | --- |
| CCCCn1c(=O)c2c(O)cc(=O)oc2c2ccccc21 | inconclusive: 35.5 µM [inhibitor, partial curve, poor fit] |  |
| O=C(NCc1ccco1)c1cc2ccc(O)cc2oc1=O | active: 6.31 µM |  |
| Cc1ccc(OCC(=O)NNc2c3ccccc3nc3ccccc23)cc1 | inconclusive: 25.1 µM [inhibitor, partial curve, poor fit] |  |
| O=C(Nc1ccccc1)NN(C(=O)CCl)c1ccccc1 | inconclusive: 28.2 µM [inhibitor, partial curve, poor fit] |  |
| O=C(N/N=C/c1ccc(N2CCOCC2)o1)c1cccc([N+](=O)[O-])c1 | inconclusive: 25.1 µM [inhibitor, single point] |  |
| COc1ccc(-c2nc3oc4cc(OC)ccc4c(=O)c3c(=O)n2Cc2ccco2)cc1 | inconclusive: 15.8 µM [inhibitor, partial curve] |  |
| Oc1cccc(Nc2nc(O)c(/C=C3\C=Nc4ccccc43)s2)c1 | inconclusive: 56.2 µM [inhibitor, partial curve] |  |
| CC(=O)N1CCc2c(sc(NC(=O)c3ccc([N+](=O)[O-])o3)c2C#N)C1 | active: 20 µM |  |
| COc1ccc(C(CNC(=O)COc2cc(C)c(Cl)c(C)c2)N2CCCCC2)cc1 (configuration not stated) | inconclusive: 56.2 µM [inhibitor, partial curve, poor fit] |  |
| CCn1c(SCC(=O)NC(=O)NCc2ccco2)nnc1-c1cccs1 | inconclusive: 15.8 µM [inhibitor, full curve, poor fit] |  |
| CCOc1ccc(-n2cc(-c3ccccc3)c3c(=O)[nH]cnc32)cc1 | inconclusive: 56.2 µM [inhibitor, partial curve, poor fit] |  |
| CCn1c(CSc2n[nH]c(N)n2)nc2cc(C(=O)O)ccc21 | inconclusive: 15.8 µM [inhibitor, partial curve, poor fit] |  |
| COc1ccc(-c2c3c(=O)n(C)c(=O)n(C)c3c3n2-c2ccccc2NC3c2ccccc2OC)cc1 (configuration not stated) |  | inactive: 6.45% |
| c1ccc2[nH]c(CN3CCN(c4ncnc5c4oc4ccccc45)CC3)nc2c1 | inconclusive: 35.5 µM [inhibitor, partial curve, poor fit] |  |
| Cc1ccc(/C=C/C(=O)N2CCc3ccccc32)o1 | active: 8.91 µM |  |
| O=C(CSc1nc2c(c(=O)[nH]1)CN(Cc1ccc3c(c1)OCO3)CC2)Nc1cc(F)ccc1F | inconclusive: 89.1 µM [inhibitor, single point] |  |
| O=C(O)c1ccc(N2C(=O)/C(=C/C=C/c3ccccc3)SC2=S)cc1 | active: 50.1 µM |  |
